Test results taken from US20220281949A1 (UNIVERSITY HEALTH NETWORK, published 2022).

Target: T1, recombinant 10× His-tagged CD4 protein (extracellular domain of human CD4, GS linker, 10× histidine tag) (human)
T1 construct: Expressed in A375 cells, purified on TALON resin; The text says […] of, whereas the printed construct ends at ...KVLPTW; also called soluble CD4; recombinant CD4
Experiment: biolayer interferometry (Octet Red), biotinylated DR1 on streptavidin biosensors, soluble CD4 0.8125 to 26 µM, steady-state one-site fit

B1: biotinylated recombinant DR1^L114W/V143M+2reps protein (DRA1*01:01 and mutant DRB1*01:01 extracellular domains with leucine zippers) (peptide-MHC)
MHC II alpha: not shown
MHC II beta: GDTRPRFLWQLKFECHFFNGTERVRLLERCIYNQEESVRFDSDVGEYRAVTELGRPDAEYWNSQKDLLEQRRAAVDTYCRHNYGVGESFTVQRRVEPKVTVYPSKTQPLQHHNWLVCHVSGFYPGSIEVRWFRNGQEEKAGVMSTGLIQNGDWTFQILVMLETVPRSGEVYTCQVEHPSVTSPLTVEWRARSESAQSKGGGGSLEIEAAFLERENTALETRVAELRQRVQRLRNRVSQYRTRYGPLGGGKGSGLNDIFEAQKIEWHE
notes: also called biotinylated HLA-DR1
Kd: 14 µM
